# Measured values from the supplement of paper PMC7826260.
# The list shows a part of the results. The data describe in vitro nicking of single-stranded DNA by Rep domains at 3 µM enzyme and 37 °C for 1 h; the strands have 90 letters, of which the middle is given. A value is the log2 ratio of uncut reads to the pool without enzyme; uncut sequences lie near 0, cut ones below; no hit call is given. The scaling is to total reads, so uncut sequences can rise above 0 when many others are cut.
# Columns and labels:
# Test in all cases: uncleaved DNA left, log2 of reads against the no-enzyme library (log2 ratio); higher = less cleavage (more negative = more Rep cleavage of the k-mer); sequences stand for … in CTCGTCCG…ACCGGAGA
# [1] = tested on: T1, Rep nickase domain of Muscovy duck circovirus
# T1 sequence (Rep 1-111, printed without the tag): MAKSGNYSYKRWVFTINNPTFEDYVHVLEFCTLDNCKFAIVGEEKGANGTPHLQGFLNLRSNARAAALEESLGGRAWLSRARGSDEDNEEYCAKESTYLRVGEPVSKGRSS
# Protocol: (§1)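 A pool of 90-nt single-stranded DNAs with seven random bases just before the constant AC of the nick site (name = the seven bases) was cut by 3 µM recombinant His6-SUMO-tagged Rep nickase domain (300 nM DNA, 50 mM HEPES pH 8.0, 50 mM NaCl, 1 mM MnCl2, 1 h, 37 °C, three replicates). Uncut DNA was amplified and sequenced.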
# [2] = tested on: T2, Rep nickase domain of banana bunchy top virus
# T2 sequence (Rep 1-94, printed without the tag): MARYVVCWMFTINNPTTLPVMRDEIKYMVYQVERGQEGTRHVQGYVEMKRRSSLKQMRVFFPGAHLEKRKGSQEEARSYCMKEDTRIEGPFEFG
# Protocol: as §1
# [3] = tested on: T3, Rep nickase domain of cabbage leaf curl virus
# T3 sequence (Rep 1-116, printed without the tag): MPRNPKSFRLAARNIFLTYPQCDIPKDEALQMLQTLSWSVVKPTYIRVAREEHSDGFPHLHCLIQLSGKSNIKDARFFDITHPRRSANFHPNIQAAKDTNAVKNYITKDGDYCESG
# Protocol: as §1
# [4] = tested on: T4, Rep nickase domain of chickpea chlorotic dwarf virus
# T4 sequence (Rep 1-124, printed without the tag): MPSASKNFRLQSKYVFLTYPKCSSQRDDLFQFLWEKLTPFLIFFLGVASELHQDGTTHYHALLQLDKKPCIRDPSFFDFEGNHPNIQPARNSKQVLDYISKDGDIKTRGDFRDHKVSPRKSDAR
# Protocol: as §1
# [5] = tested on: T5, Rep nickase domain of faba bean necrotic yellows virus
# T5 sequence (Rep 1-98, printed without the tag): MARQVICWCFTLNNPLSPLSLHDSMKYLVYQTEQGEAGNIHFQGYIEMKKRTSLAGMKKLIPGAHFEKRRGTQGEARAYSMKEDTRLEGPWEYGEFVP
# Protocol: as §1
# [6] = tested on: T6, Rep nickase domain of maize striate mosaic virus
# T6 sequence (Rep 1-117, printed without the tag): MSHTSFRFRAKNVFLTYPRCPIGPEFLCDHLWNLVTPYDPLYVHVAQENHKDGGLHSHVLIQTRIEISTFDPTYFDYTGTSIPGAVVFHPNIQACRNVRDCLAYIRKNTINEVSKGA
# Protocol: as §1
# [7] = tested on: T7, Rep nickase domain of porcine circovirus 2
# T7 sequence (Rep 2-116, printed without the tag): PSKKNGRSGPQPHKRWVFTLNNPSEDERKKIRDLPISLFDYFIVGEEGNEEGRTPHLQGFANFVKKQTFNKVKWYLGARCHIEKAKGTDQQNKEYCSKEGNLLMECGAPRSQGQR
# Protocol: as §1
# [8] = tested on: T8, Rep nickase domain of tomato golden mosaic virus
# T8 sequence (Rep 1-124, printed without the tag): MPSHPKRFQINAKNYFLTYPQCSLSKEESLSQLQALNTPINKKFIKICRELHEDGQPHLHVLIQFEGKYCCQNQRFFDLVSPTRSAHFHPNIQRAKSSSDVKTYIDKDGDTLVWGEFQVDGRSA
# Protocol: as §1
# [9] = tested on: T9, Rep nickase domain of tomato yellow leaf curl virus
# T9 sequence (Rep 1-136, printed without the tag): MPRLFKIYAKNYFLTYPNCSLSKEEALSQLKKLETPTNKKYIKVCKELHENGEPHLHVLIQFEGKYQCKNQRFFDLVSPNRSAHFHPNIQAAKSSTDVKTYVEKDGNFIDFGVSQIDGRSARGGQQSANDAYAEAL
# Protocol: as §1
# [10] = tested on: T10, Rep nickase domain of wheat dwarf virus
# T10 sequence (Rep 1-137, printed without the tag): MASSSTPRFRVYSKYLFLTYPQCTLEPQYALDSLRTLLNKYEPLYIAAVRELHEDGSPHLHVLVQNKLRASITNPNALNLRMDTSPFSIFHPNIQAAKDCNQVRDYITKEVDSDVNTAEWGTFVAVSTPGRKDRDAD
# Protocol: as §1
Sequence,uncleaved DNA left (log2) [1],uncleaved DNA left (log2) [2],uncleaved DNA left (log2) [3],uncleaved DNA left (log2) [4],uncleaved DNA left (log2) [5],uncleaved DNA left (log2) [6],uncleaved DNA left (log2) [7],uncleaved DNA left (log2) [8],uncleaved DNA left (log2) [9],uncleaved DNA left (log2) [10]
AGGGTCC,0.0247,0.0386,0.116,0.66,-0.063,0.767,0.0827,0.0684,0.00578,0.0362
ACACCCA,-0.105,-0.0163,-0.0385,-0.894,-0.0239,-0.519,-0.218,-0.0145,-0.142,0.0345
ACTTGGA,-0.056,0.0235,-0.273,-0.433,0.0348,-0.912,0.0719,0.000847,0.0019,-0.04
TGTTCTC,-0.137,0.0384,0.296,0.601,-0.0204,1.11,0.000461,0.0286,0.104,0.0974
CCTATGT,0.0743,-0.104,-0.172,-0.287,-0.0311,-1.08,-0.325,-0.0563,-0.167,-0.00247
CGATGAA,0.00469,-0.0899,0.0308,0.365,-0.0801,0.422,-0.0287,-0.0433,-0.0714,-0.0299
CACGGTT,-0.144,-0.0886,-0.00773,-0.593,-0.212,0.886,-0.211,0.0207,-0.216,-0.212
AAGAGGG,0.0747,0.0898,-0.14,-0.13,0.00909,-0.591,0.257,0.133,-0.00987,0.0774
AACATGG,0.00117,0.00532,-0.508,-0.461,-0.00267,-1.01,0.106,-0.00867,0.0237,-0.106
TCCAGCT,0.0397,-0.0186,-0.212,-0.745,0.0645,-0.589,0.0716,-0.0646,-0.208,0.00837
TTCAGGA,0.0748,0.00266,0.173,0.563,0.0596,-0.0276,0.138,0.0955,-0.0102,0.0658
TAGTAGC,0.00106,-0.0286,-0.36,-0.602,-0.0422,-1.22,-1.61,-0.0319,-0.00595,-0.0744
GTGTTCG,-0.148,-0.187,-0.511,-0.446,-0.031,-0.696,-0.0388,-0.124,-0.174,-0.258
ATTTATT,-3.63,-4.1,-1.05,-3.08,-1.03,-0.786,-4.37,-0.687,-0.0891,-1.5
CCATATG,-0.147,0.00749,-0.771,-0.435,-0.0312,-0.991,0.116,-0.106,-0.117,-0.0891
GTCCAGG,0.0194,-0.0435,0.26,0.994,-0.0465,1.65,-0.00256,0.104,-0.043,0.0684
TTCACAG,-0.0421,-0.0726,-0.586,-1.52,-0.187,-1.11,0.176,-0.156,-0.0289,-0.0415
CACCCTC,-0.0884,-0.19,-0.00126,-0.747,-0.182,-0.377,-0.896,-0.234,-0.0303,-0.0693
AACTGGG,0.0806,-0.00418,-0.496,-0.574,0.00357,-0.979,0.185,0.00452,0.0485,-0.031
GGAGGCT,0.101,0.0466,0.871,1.56,0.0981,2.08,0.224,0.162,0.0975,0.101
CACTCTA,-0.166,-0.36,-0.155,-2.84,-0.0621,-0.836,-2.31,-0.0872,-0.175,-0.0796
TTAACAG,0.044,0.0456,-0.639,-1.78,0.0546,-1.13,0.115,-0.0111,0.0345,-0.0392
TTTTACT,-4,-1.41,-0.676,-3.14,-0.164,-0.367,-3.69,-0.382,-0.131,-0.616
GATATGT,0.0694,0.00508,0.269,0.384,0.0488,0.567,-0.0466,0.186,0.175,0.106
CTCTTCA,-0.163,0.0389,-0.0899,-1.37,0.015,-0.647,-0.179,-0.189,-0.047,0.0852
GCGATGC,0.0618,-0.0167,-0.122,0.405,-0.0166,0.0289,0.0343,-0.00696,-0.0963,0.0366
CAGAATG,0.144,0.166,-0.0637,0.6,0.125,0.545,0.256,0.187,0.0692,0.161
TATTCGC,-0.239,-0.228,-0.749,-0.788,0.0038,-1.16,0.00227,-0.113,-0.053,-0.121
GCCAACT,-0.024,-0.0706,0.0332,-1.79,-0.0824,-0.0611,-0.185,-0.0386,-0.0965,-0.0767
AATATTC,-0.0544,-0.0897,-0.153,-0.386,0.0258,-0.932,-0.118,-0.121,-0.185,-0.135
